Reference: article PMC4336329 (PLoS ONE, 2015)
Hit rate of the full screen: of about 310,000 compounds, about 14,000 (4.5%) showed an effect of 50% or more. The effect is printed as a negative number. The list shows a part of the results.

Molecular target: human ether-à-go-go-related gene (hERG) potassium channel (human, UniProt Q12809)
Test: primary screen, population patch clamp on CHO cells stably expressing hERG
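Further: peak tail current of the secondary pulse compared with the same well before compound.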

human ether-à-go-go-related gene (hERG) potassium channel, sequence (Q12809 whole entry, looked up): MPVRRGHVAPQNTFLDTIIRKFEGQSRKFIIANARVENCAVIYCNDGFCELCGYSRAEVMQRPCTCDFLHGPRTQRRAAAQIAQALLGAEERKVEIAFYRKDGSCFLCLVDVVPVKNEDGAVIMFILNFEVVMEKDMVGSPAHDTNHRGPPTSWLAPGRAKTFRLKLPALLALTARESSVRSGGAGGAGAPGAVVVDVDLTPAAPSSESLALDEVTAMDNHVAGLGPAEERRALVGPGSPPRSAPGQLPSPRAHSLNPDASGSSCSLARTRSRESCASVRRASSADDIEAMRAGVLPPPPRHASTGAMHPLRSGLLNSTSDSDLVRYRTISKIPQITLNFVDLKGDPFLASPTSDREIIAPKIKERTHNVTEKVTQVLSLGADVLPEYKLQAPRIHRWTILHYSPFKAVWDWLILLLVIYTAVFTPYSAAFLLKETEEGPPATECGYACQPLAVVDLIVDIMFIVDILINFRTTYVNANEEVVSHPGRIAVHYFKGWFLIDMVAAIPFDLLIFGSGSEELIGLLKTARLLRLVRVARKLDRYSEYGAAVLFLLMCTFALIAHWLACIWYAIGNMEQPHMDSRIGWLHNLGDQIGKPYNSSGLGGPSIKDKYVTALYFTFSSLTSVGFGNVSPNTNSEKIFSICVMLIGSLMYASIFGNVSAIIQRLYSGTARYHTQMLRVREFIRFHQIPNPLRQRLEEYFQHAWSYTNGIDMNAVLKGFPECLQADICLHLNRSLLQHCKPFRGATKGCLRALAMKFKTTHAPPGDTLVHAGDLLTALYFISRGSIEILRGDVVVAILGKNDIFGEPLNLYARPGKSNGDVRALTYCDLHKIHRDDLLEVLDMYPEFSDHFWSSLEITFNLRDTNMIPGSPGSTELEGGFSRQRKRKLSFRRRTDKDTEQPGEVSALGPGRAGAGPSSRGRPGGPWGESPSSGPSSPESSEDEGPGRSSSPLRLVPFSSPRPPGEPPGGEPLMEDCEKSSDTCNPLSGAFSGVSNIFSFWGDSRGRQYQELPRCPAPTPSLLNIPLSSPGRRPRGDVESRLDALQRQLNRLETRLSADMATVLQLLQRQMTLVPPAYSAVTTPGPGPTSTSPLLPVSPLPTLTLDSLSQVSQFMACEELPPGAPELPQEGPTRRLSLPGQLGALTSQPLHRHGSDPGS

First: Cc1noc(C)c1COC(=O)CNC(=O)c1ccc(Cl)cc1
Second: Cc1nn(-c2ccccc2)c(C)c1NC(=O)COC(=O)c1cc(Br)ccc1O
The “hERG current change (%, negative = inhibition) at 10uM” value of the first is higher: 7.83% for the first, -0.668% for the second.

First: O=C(COc1ccc(Cl)cc1Cl)N/N=C/C1CC=CCC1 (stereo not shown)
Second: CC(NC(=O)COC(=O)c1ccc(OCC2CCCO2)cc1)c1ccccc1Cl (stereo not shown)
The “hERG current change (%, negative = inhibition) at 10uM” value of the first is higher: 11.5% for the first, -2.21% for the second.

Compared with `CCn1c2ccccc2c2nnc(SCC(=O)Nc3c(C)n(C)n(-c4ccccc4)c3=O)nc21`, `COc1ccc(Cc2nnc(SCC(=O)Nc3ccccc3C)n(N)c2=O)cc1` is higher in “hERG current change (%, negative = inhibition) at 10uM” value: 0.0991% for the first, 13.5% for the second.

Going from `O=C1CSC(c2ccccn2)N1c1ccc(F)cc1F` (stereo not shown) to `O=[N+]([O-])c1cc(C(F)(F)F)ccc1-n1nnc2ccccc21`, the “hERG current change (%, negative = inhibition) at 10uM” value rises from -0.569% to 7.86%.

Compared with `O=C(CN(Cc1ccccc1Cl)S(=O)(=O)c1ccc(Cl)cc1)N/N=C/c1ccc(C(=O)O)cc1`, `O=C(CN1CCN(S(=O)(=O)c2ccc(Br)cc2)CC1)N/N=C/c1cccnc1` is lower in “hERG current change (%, negative = inhibition) at 10uM” value: 16.2% for the first, -31.6% for the second.

First: CCCn1cnc2scc(-c3ccc(C)c(C)c3)c2c1=O
Second: CCOC(=O)c1c(NC(=O)CSc2ncnc3ccccc23)sc(C)c1C
The “hERG current change (%, negative = inhibition) at 10uM” value of the first is lower: -3.28% for the first, 0.193% for the second.

Compared with `C1CCC(OCCN2CCN(CCOC3CCCCC3)CC2)CC1`, `CCN1CCN(CCC(=O)Nc2cc(OC)ccc2OC)CC1.Cl` is higher in “hERG current change (%, negative = inhibition) at 10uM” value: -37.1% for the first, 0.86% for the second.

First: Cc1nc2ncccn2c1-c1csc(NCc2ccco2)n1
Second: CC(=O)n1c2ccccc2c2nc3ccccc3nc21
The “hERG current change (%, negative = inhibition) at 10uM” value of the first is lower: -51.8% for the first, 4.16% for the second.

Going from `CCOc1cc(/C=C2/SC(=O)N(CC(=O)N3CCc4ccccc4C3)C2=O)ccc1OCC(=O)O` to `O=C(C1CCN(S(=O)(=O)c2cccs2)CC1)N1CCc2ccccc2C1`, the “hERG current change (%, negative = inhibition) at 10uM” value falls from 3.14% to -38%.

Compared with `COc1ccc(S(=O)(=O)N2CCOC23CCN(S(=O)(=O)c2cc(F)ccc2F)CC3)cc1`, `O=C(NCCCN1CCCC1=O)C(=O)NCC1OCCCN1S(=O)(=O)c1cc(F)ccc1F` (stereo not shown) is higher in “hERG current change (%, negative = inhibition) at 10uM” value: -2.76% for the first, 23.8% for the second.

Going from `C=CCN1C(=O)N/C(=C/c2ccc(C)o2)C1=O` to `C=CCn1cc(C(=O)OC)c(=O)c2cc(S(=O)(=O)N3CCCCCC3)ccc21`, the “hERG current change (%, negative = inhibition) at 10uM” value falls from 9.15% to -0.223%.

Compared with `CCCCN(C)C(=O)c1cccc(OC2CCN(CC(C)(C)C)CC2)c1`, `CCCCN(CCCC)CCNC(=O)c1cn(C)c2ccc(S(=O)(=O)N3CCCC3)cc2c1=O` is lower in “hERG current change (%, negative = inhibition) at 10uM” value: -12.5% for the first, -57.9% for the second.

Compared with `Cc1cc(N2CCC(C(=O)NC3CC3)CC2)nc(-c2ccccc2)n1`, `CC(=O)c1ccc(N2CCN(C(=O)Cc3ccccc3)CC2)c(F)c1` is higher in “hERG current change (%, negative = inhibition) at 10uM” value: -46% for the first, -9.6% for the second.

Compared with `Nc1cc(=O)[nH]n1C1CCCC1`, `CC1(C)CC(=O)C2=C(C1)OC(/N=C/N1CCOCC1)=C(C#N)C2c1ccccc1` (stereo not shown) is lower in “hERG current change (%, negative = inhibition) at 10uM” value: 21.5% for the first, -11% for the second.

Compared with `COc1ccccc1N1CC(O)=C(c2nc3ccccc3s2)C1=N`, `COc1ccc(O)c(C(=O)c2cnn(-c3ccccc3)c2)c1` is higher in “hERG current change (%, negative = inhibition) at 10uM” value: 0.288% for the first, 5.65% for the second.

Going from `COc1cc(C(=S)N2CCOCC2)ccc1OS(=O)(=O)c1ccc(C)cc1` to `O=C(C(=O)N1CCN(c2cccc(Cl)c2)CC1)c1cn(CC(=O)N2CCOCC2)c2ccccc12`, the “hERG current change (%, negative = inhibition) at 10uM” value rises from -7.34% to 6.64%.

Going from `CCC1C/C(=C/c2cccs2)C(=O)/C(=C/c2cccs2)C1` (stereo not shown) to `COc1ccc(Br)cc1CNC(=O)Nc1cccs1`, the “hERG current change (%, negative = inhibition) at 10uM” value rises from -5.36% to -2.81%.

Going from `COC(=O)c1ccc(OCC(=O)c2ccccc2)cc1` to `CC(=O)Nc1ccc(C(=O)CSc2nnc3scc(-c4ccccc4)n23)cc1`, the “hERG current change (%, negative = inhibition) at 10uM” value rises from -17.4% to 0.323%.

First: COC(=O)C1C(c2ccc(N(C)C)cc2)C(C(=O)OC)S(=O)(=O)CS1(=O)=O (stereo not shown)
Second: CCN(CC)C(=O)c1sc(NC(=O)Cc2ccc(OC)cc2)c(C#N)c1C
The “hERG current change (%, negative = inhibition) at 10uM” value of the first is lower: 6.12% for the first, 7.7% for the second.

First: CC(=O)C(Sc1nccc(-c2cccs2)n1)C(C)=O
Second: CC(C)(C)NC(=O)CSc1nc(-c2ccc(F)cc2)cs1
The “hERG current change (%, negative = inhibition) at 10uM” value of the first is lower: -18% for the first, 18.5% for the second.

Going from `COc1ccccc1CN1CCCCCC1.O=C(O)C(=O)O` to `C/C(=N\NC(=O)c1nnn(-c2nonc2N)c1CN1CCCCC1)c1ccccc1O.Cl`, the “hERG current change (%, negative = inhibition) at 10uM” value falls from 11.5% to -12.9%.

Compared with `O=C(c1ccc(CNS(=O)(=O)c2ccccc2)cc1)N1CCN(c2ccccn2)CC1`, `CCOc1cc(S(=O)(=O)NCc2ccccc2)ccc1Br` is higher in “hERG current change (%, negative = inhibition) at 10uM” value: -28.5% for the first, 2.47% for the second.

First: CCN(CC)CCN1C(=O)C(=O)/C(=C(/O)c2ccncc2)C1c1ccccc1F (stereo not shown)
Second: Cc1ccc(N2CC(C(=O)OCc3nnc(-c4ccccc4)o3)CC2=O)cc1 (stereo not shown)
The “hERG current change (%, negative = inhibition) at 10uM” value of the first is higher: 2.25% for the first, -4.97% for the second.

Going from `O=C(Oc1cccnc1)c1cc2ccccc2oc1=O` to `CNC(=O)CCc1[nH]c2ccccc2c1Sc1ccccc1`, the “hERG current change (%, negative = inhibition) at 10uM” value falls from 5.57% to 4.85%.

First: O=C(Nc1cc(S(=O)(=O)N2CCCCC2)ccc1N1CCCCC1)c1ccncc1
Second: COc1cccc(NC(=O)c2ccc3c(c2)C(=O)N(CC2CCCO2)C3=O)c1 (stereo not shown)
The “hERG current change (%, negative = inhibition) at 10uM” value of the first is lower: -52.4% for the first, 4.64% for the second.

Compared with `COC(=O)C1=C(C)N(CCc2c[nH]c3ccccc23)C(=O)/C1=C\N(C)C`, `COc1cc(/C=C2\C(=O)ON=C2c2ccc(Cl)cc2)ccc1O` is lower in “hERG current change (%, negative = inhibition) at 10uM” value: 20.5% for the first, 6.33% for the second.

First: CCCCC(CC)COC(=O)C(C#N)=C(c1ccccc1)c1ccccc1 (stereo not shown)
Second: O=C(NC1CCCCC1)C(c1ccc2ncccc2c1)N(Cc1ccc(F)cc1)C(=O)c1ccc2c(c1)OCCO2 (stereo not shown)
The “hERG current change (%, negative = inhibition) at 10uM” value of the first is higher: 24.3% for the first, -14.6% for the second.

With `Cc1cc(C)nc(NC(=O)c2ccc([N+](=O)[O-])o2)n1` the “hERG current change (%, negative = inhibition) at 10uM” value was -2.93%.
